# Hit rate of the full screen: of about 94,000 compounds, about 6,200 (6.6%) were called active. Inconclusive means that the source gave no clear call. Such entries were picked first, then a sample of the others. Calls come from the whole dose curve; as a rule, active = well fitted inhibition curve with a large enough effect; inconclusive = small, poorly fitted or top-dose-only effect; inactive = flat fitted curve, though single readings scatter. Potencies beside an inconclusive call are fits to weak or partial responses and may not hold up.
# Test: Cytotoxic Profiling in HEK 293 Cell Line of Diverse Libraries Using Quantitative High-Throughput Screening; note: nearly all actives have a fitted effect of over 60% in size
# Settings: HEK 293 viability, ATP luminescence (CellTiter-Glo), 48-72 h; activity change, negative = cytotoxicity: at 115 µM (top of the series) unless noted; series mostly up to 115 µM
# Summary of the method: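 Luminescence from cellular ATP, measured with CellTiter-Glo, indicates HEK 293 viability. Cells plated at 250 cells/well are treated with compound for 48 or 72 hr at 37 degree Celsius before reagent addition.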
# % is set by controls: 0 for no effect and ±100 for the full control effect; potency is the fitted concentration of half-maximal effect; tags give direction and shape of the fitted curve.
Compound,Potency,"activity change, negative = cytotoxicity"
Cc1cccc(OCC(=O)N2CCc3nn(Cc4ccccc4)c(=O)n3CC2)c1,"inconclusive: 89.1 µM [inhibitor, single point]",–
CC(C)N1C(=O)C2(CCN(C(=O)c3ccc(Cl)cc3)C2)c2ccccc21 (stereo unspecified),"inconclusive: 50.1 µM [inhibitor, partial curve, poor fit]",–
CN(C)c1nc2c(c(=O)[nH]1)CCN(Cc1cccc(Br)c1)CC2,"inconclusive: 89.1 µM [inhibitor, single point]",–
Cn1ncc2c(C(=O)NCC(F)F)cc(-c3ccc(Cl)cc3)nc21,active: 44.7 µM,–
CN1CCC2(C1)CN(Cc1ccccc1)c1ccc(C(=O)NC3CC3)cc12 (stereo unspecified),"inconclusive: 63.1 µM [inhibitor, full curve]",–
O=C(NCCc1ccccc1)N1CC(c2nc(CCOCC3CC3)no2)C1,inactive,–
O=C(Cc1cccc(Cl)c1)N1CCC(c2nn(-c3ccccc3)c(=O)[nH]2)CC1,"inconclusive: 44.7 µM [inhibitor, partial curve, poor fit]",–
O=C1CC2(CCN(S(=O)(=O)c3cccs3)CC2)Oc2ccccc21,"inconclusive: 50.1 µM [inhibitor, partial curve, poor fit]",–
Cc1ccc(-n2cccc2CC(=O)NC2CCCCC2)cc1,"inconclusive: 89.1 µM [inhibitor, single point]",–
COc1ccccc1Nc1ccnc(N2CC3CCC(C2)N3CC(F)(F)F)n1,"inconclusive: 44.7 µM [inhibitor, partial curve, poor fit]",–
O=C(NCc1ccc(F)cc1F)c1noc(-c2ccc3c(c2)OCO3)n1,"inconclusive: 50.1 µM [inhibitor, partial curve, poor fit]",–
Cc1nn(-c2ccccc2)c2c1C(C(C)C)N(C1CCCN([S+](C)(=O)[O-])C1)C2=O (stereo unspecified),"inconclusive: 89.1 µM [inhibitor, single point]",–
CC(C)C[C@@H]1N[C@H](C(=O)NC2CCC2)Cc2cn(CC3CC3)c3cccc1c23,active: 56.2 µM,–
O=C(C1CC(=O)N(C2CCCC2)C1)N1CCN(c2ccc(Cl)cn2)CC1 (stereo unspecified),"inconclusive: 89.1 µM [inhibitor, single point]",–
CC(C)c1ccc(-c2nc(-c3cccnn3)no2)c(=O)[nH]1,"inconclusive: 100 µM [inhibitor, partial curve, poor fit]",–
CN1CC(=O)N(C2CCCC2)Cc2c(NCc3cccc(Cl)c3)ncnc21,"inconclusive: 56.2 µM [inhibitor, partial curve, poor fit]",–
O=C(c1ccc2c(c1)OCO2)N1CCC2(CC1)N=C(c1ccc(Cl)cc1)NO2,"inconclusive: 79.4 µM [inhibitor, single point]",–
CN1C[C@H](C(=O)Nc2cccc(Cl)c2)C[C@H]1c1cccc(C(F)(F)F)c1,active: 35.5 µM,–
OCCNc1cc(N2CCCC(CO)(Cc3ccccc3F)C2)ncn1 (stereo unspecified),"inconclusive: 56.2 µM [inhibitor, partial curve, poor fit]",–
Cc1ccc(-n2cccc2CC(=O)NCc2ccc3c(c2)OCO3)cc1,"inconclusive: 89.1 µM [inhibitor, single point]",–
CCOc1ccccc1NC(=O)Cn1c(-c2ccc(Cl)cc2)nc(C)c(CCO)c1=O,inactive,–

Compound,Potency,"activity change, negative = cytotoxicity"
COc1cccc(-c2ccc(NC(=O)C3CCCN3Cc3cnn(C)c3)cc2)c1 (stereo unspecified),active: 44.7 µM,–
O=C(c1ccccc1F)N1CCc2nc(C3CC3)nc(-c3ccc(Cl)cc3)c2C1,inactive,–
CN(C(=O)[C@@H]1C[C@H](c2ccc(F)cc2)N([S+](=O)([O-])C2CC2)C1)c1ccccc1,"inconclusive: 70.8 µM [inhibitor, partial curve, poor fit]",–
O=C(N[C@@H]1CNC[C@H]1O)C1CCN(c2nc(-c3ccccc3)nc3c2CCC3)CC1,"inconclusive: 39.8 µM [inhibitor, partial curve, poor fit]",–
COc1ccc(CNC(=O)Cc2c[nH]c3ncc(-c4ccccc4)cc23)cc1OC,"inconclusive: 63.1 µM [inhibitor, full curve, poor fit]",–
O=C(NC1CCCC1)NC1CCN(c2nccc(Nc3ccccc3F)n2)CC1,"inconclusive: 39.8 µM [inhibitor, partial curve, poor fit]",–
O=C1NCCCCCCN(C(=O)NCCc2ccccc2)[C@H]2CCC[C@@H]12,"inconclusive: 89.1 µM [inhibitor, single point]",–
CC(C)c1noc(CN(C)C(=O)c2cc(-c3cnn(C)c3)nc3ccccc23)n1,"inconclusive: 89.1 µM [inhibitor, single point]",–
COCCN1CCOC2(CCN(Cc3ccc(F)cc3F)CC2)C1=O,–,inconclusive: -32.2% [inhibitor] [at 172 µM]
CCCn1ncnc1C(C)Nc1cc(C(C)C)nc2cc(C)nn12 (stereo unspecified),"inconclusive: 89.1 µM [inhibitor, single point]",–
O=C(c1ccccc1Cl)N1CCn2c(nn(-c3ccc([N+](=O)[O-])cc3)c2=O)C1,"inconclusive: 56.2 µM [inhibitor, partial curve, poor fit]",–
CN(c1ccccc1)c1ccc2nnc(-c3cc(C(=O)NCCc4ccccc4)ccn3)n2n1,"inconclusive: 50.1 µM [inhibitor, partial curve, poor fit]",–
CC(C)Oc1cccc(-c2nc(C(=O)NCc3ccccc3)cs2)c1,active: 31.6 µM,–
CO[C@H]1C(=O)N(C2CCN(C(=O)CCc3c[nH]c4ccccc34)CC2)[C@H]1c1ccncc1,inactive,–
COc1ccccc1CNC(=O)CCC[C@H]1NC[C@@H]2C[C@H]1CN(Cc1ccccc1)C2,inactive,–
CCCc1noc(-c2ccn3c(CNC(=O)c4ccoc4)nnc3c2)n1,"inconclusive: 100 µM [inhibitor, single point]",–
COCCCn1c(=O)c(C(=O)NCCOC)nc2cccnc21,inactive,–
Cc1ccc(Nc2ccnc(N3CCC(C(=O)N4CCCCC4)CC3)n2)cc1,"inconclusive: 8.91 µM [inhibitor, full curve, poor fit]",–
COc1ccc(OC)c(S(=O)(=O)N[C@H]2CO[C@H]3[C@@H]2OC[C@H]3OC(=O)Nc2ccc(Oc3ccccc3)cc2)c1,"inconclusive: 12.6 µM [inhibitor, full curve, poor fit]",–
Cn1cccc1CN[C@H]1[C@H](O)[C@@H](N2CCC(C(N)=O)CC2)[C@@H]2OC[C@H]1O2,"inconclusive: 112 µM [inhibitor, single point]",–
O=C(c1nnc(CNc2ccccn2)n1-c1cccnc1)N1CCC[C@@H]1C(c1ccccc1)c1ccccc1,inactive,–

Compound,Potency,"activity change, negative = cytotoxicity"
O=C(Nc1ccc(C2(C(=O)NCc3ccccn3)CCCCC2)cc1)C1CC1,"inconclusive: 89.1 µM [inhibitor, single point]",–
Cc1ccc(-c2cc3c(ccn3C)c(C(=O)NCCc3cnc[nH]3)n2)cn1,"inconclusive: 100 µM [inhibitor, partial curve]",–
Cc1ccc(-c2nc(CNC(=O)CC3CNCCO3)[nH]c2-c2ccccn2)cc1 (stereo unspecified),"inconclusive: 89.1 µM [inhibitor, single point]",–
Fc1ccc(-c2ccc3ncc(Nc4ccncc4)n3n2)cc1,active: 100 µM,–
COc1ccc(-c2cc(N3CCCC(NC(=O)c4cc(C)ccc4C)C3)n[nH]2)cc1 (stereo unspecified),"inconclusive: 35.5 µM [inhibitor, partial curve]",–
Cc1cc2nc3n(c(=O)c2n1CC(=O)Nc1ccc(F)c(F)c1)CCCCC3,"inconclusive: 50.1 µM [inhibitor, partial curve, poor fit]",–
Cc1ccccc1OCc1nc(C2CN(C(=O)C(C)c3ccccc3)C2)no1 (stereo unspecified),"inconclusive: 89.1 µM [inhibitor, partial curve, poor fit]",–
CNC(=O)c1cc(C2CC2)nc2c1c(C1CCCN(C(=O)c3cccnc3)C1)nn2C (stereo unspecified),inactive,–
COCCn1c(C)cnc1CCNS(=O)(=O)c1c(C)noc1C,"inconclusive: 22.4 µM [inhibitor, partial curve]",–
O=C(Nc1ccc([C@@H](O)[C@H]2COCC(=O)N2Cc2ccc(C(F)(F)F)cc2)cc1)c1ccco1,"inconclusive: 89.1 µM [inhibitor, single point]",–
Cc1noc(C)c1-c1cnc(Nc2cccc(C(F)(F)F)c2)c2c1CCO2,active: 63.1 µM,–
Cc1nn(-c2ccccc2)c2c1C(C(C)C)N(C1CCN([S+](=O)([O-])c3c(C)noc3C)CC1)C2=O (stereo unspecified),inactive,–
COc1ccc(-c2cc(N3CCCC(NC(=O)c4cnccn4)C3)n[nH]2)cc1 (stereo unspecified),"inconclusive: 20 µM [inhibitor, full curve, poor fit]",–
CCOC(=O)C1(Cc2ccccc2C(F)(F)F)CCN(Cc2ccccn2)CC1,active: 39.8 µM,–
CCOCCN1C(=O)COC[C@@H]1[C@H](O)c1ccc(NC(=O)c2ccnc(Cl)c2)cc1,"inconclusive: 39.8 µM [inhibitor, full curve]",–
O=C(CN1C(=O)COc2ccc(C(=O)COc3ccccc3Cl)cc21)NCc1ccco1,"inconclusive: 56.2 µM [inhibitor, partial curve, poor fit]",–
CC1(C(=O)NCC2CC2)CCCc2cnc(Nc3ccccc3)nc21 (stereo unspecified),"inconclusive: 79.4 µM [inhibitor, partial curve, poor fit]",–
COc1cc(-c2ccc(-c3nc(CC(C)C)no3)cn2)cc(OC)c1OC,"inconclusive: 44.7 µM [inhibitor, partial curve, poor fit]",–
COc1ccc(Nc2ccnc(N3CCC(NC(=O)c4ccc(Cl)nc4)CC3)n2)cc1,"inconclusive: 39.8 µM [inhibitor, partial curve]",–
